Molecular target: Coatomer subunit beta (UniProt P53618)
Sequence of UniProt P53618 (P53618 whole entry): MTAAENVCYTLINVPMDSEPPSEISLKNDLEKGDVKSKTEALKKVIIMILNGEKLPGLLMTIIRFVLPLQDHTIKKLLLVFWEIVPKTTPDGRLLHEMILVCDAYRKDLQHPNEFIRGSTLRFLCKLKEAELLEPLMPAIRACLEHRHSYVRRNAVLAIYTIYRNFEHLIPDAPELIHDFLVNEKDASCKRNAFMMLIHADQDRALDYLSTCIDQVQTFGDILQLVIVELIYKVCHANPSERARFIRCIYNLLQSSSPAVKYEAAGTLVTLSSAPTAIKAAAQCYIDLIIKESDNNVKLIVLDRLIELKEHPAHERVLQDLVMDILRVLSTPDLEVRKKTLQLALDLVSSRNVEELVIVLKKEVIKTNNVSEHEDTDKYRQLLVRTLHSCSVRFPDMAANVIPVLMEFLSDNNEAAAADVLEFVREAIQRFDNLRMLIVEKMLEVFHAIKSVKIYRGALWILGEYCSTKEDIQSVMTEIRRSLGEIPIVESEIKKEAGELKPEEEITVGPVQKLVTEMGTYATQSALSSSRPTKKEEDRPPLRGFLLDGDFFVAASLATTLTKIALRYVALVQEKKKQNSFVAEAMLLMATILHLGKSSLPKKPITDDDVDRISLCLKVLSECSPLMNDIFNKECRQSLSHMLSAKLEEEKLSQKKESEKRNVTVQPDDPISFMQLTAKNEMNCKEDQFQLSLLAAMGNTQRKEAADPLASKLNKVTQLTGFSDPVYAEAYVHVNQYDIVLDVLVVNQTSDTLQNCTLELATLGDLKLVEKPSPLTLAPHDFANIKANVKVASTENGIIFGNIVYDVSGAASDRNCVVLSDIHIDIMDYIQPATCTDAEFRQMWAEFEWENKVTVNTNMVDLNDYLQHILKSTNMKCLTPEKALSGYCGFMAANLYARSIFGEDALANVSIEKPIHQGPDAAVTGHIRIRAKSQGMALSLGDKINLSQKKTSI

Sequence of Alpha-enolase (chain, as listed by the source): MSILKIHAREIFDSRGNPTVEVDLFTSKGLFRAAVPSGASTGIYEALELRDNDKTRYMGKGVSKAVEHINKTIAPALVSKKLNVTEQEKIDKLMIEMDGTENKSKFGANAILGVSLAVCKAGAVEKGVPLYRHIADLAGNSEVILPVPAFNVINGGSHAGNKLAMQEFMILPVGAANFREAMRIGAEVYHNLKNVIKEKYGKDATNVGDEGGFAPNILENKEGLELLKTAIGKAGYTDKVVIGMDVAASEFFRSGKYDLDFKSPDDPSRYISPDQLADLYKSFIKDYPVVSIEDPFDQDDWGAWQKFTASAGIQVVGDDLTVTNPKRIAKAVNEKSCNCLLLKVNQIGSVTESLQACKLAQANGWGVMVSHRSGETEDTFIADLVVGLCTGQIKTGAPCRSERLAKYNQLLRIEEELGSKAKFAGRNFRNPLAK

Substance: Alpha-enolase
- listed as a hit: yes

— article PMC13423814
